Measurements from PMC5892938.
Some of the results follow. At the low end of the ranking the order means little.

target: GST-SBP-SLBP (stem-loop binding protein) (UniProt Q14493); test: targeted RNA Bind-n-Seq; details: RBNS binding buffer: 25 mM Tris pH 7.5, 150 mM KCl, 3 mM MgCl2, 0.1% Tween, 0.5 mg/mL BSA, 1 mM DTT; 27 nM protein, 750 pM RNA pool; temperature not stated; high values mean tight binding;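 note: DESeq read counts versus GST-SBP nonspecific binding control pulldown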

Row | Sequence | binding signal (log2 fold change)
1 | GGUCACGUCUCAAUCAACUCAGUUUCCAGGGAAAUCCCUGGCUUUCUCAACAGCUCGCAGUCAAG | 0.0804
2 | GGUCACGUCUCAAUCAACUCAUUCUCCAGGGAAACCCCUGGCUAACUCAACAGCUCGCAGUCAAG | -0.122
3 | GGUCACGUCUCAAUCAACUCAUCCCCAGGAGUUUACUCCUGUAUUUUCAACAGCUCGCAGUCAAG | -0.0755
4 | GGUCACGUCUCAAUCAACUCUAUCUCAGGAGUUUCCUCCUGUAUAUUCAACAGCUCGCAGUCAAG | 0.251
5 | GGUCACGUCUCAAUCAACUCAACAGAGGGGGGGAAAACCCCUUUACCCUCAAAAUCAACAGCUCGCAGUCAAG | 0.167
6 | GGUCACGUCUCAAUCAACUCAUCCCCAGGAGUUUUCUCCUGCUAAUUCAACAGCUCGCAGUCAAG | 0.0546
7 | GGUCACGUCUCAAUCAACUCUUCCCCCAGGGAAAGCCCUGGUAUAUUCAACAGCUCGCAGUCAAG | 0.208
8 | GGUCACGUCUCAAUCAACUCAUCUUCAGGAGUUUCCUCCUGCUUUGUCAACAGCUCGCAGUCAAG | 0.0416
9 | GGUCACGUCUCAAUCAACUCAGUUCCAGGAGUUUCCUCCUGUUUAUUCAACAGCUCGCAGUCAAG | -0.223
10 | GGUCACGUCUCAAUCAACUCUUCUUCCAGGGAAAACCCUGGUUUUUUCAACAGCUCGCAGUCAAG | -0.0563
11 | GGUCACGUCUCAAUCAACUCAACUUCCAGGGAAAGCCCUGGUAAAUUCAACAGCUCGCAGUCAAG | -0.146
12 | GGUCACGUCUCAAUCAACUCUAUCCCCAGGGAAACCCCUGGCAAUUUCAACAGCUCGCAGUCAAG | 0.131
13 | GGUCACGUCUCAAUCAACUCUUCCCCCAGGGAAAGCCCUGGUAAUGUCAACAGCUCGCAGUCAAG | 0.156
14 | GGUCACGUCUCAAUCAACUCAACUUCAGGAGUUUCCUCCUGCUAUGUCAACAGCUCGCAGUCAAG | 0.231
15 | GGUCACGUCUCAAUCAACUCAGUUUCAGGAGUUUUCUCCUGCAUUUUCAACAGCUCGCAGUCAAG | 0.0775
16 | GGUCACGUCUCAAUCAACUCAUCUUCCAGGGAAAUCCCUGGUAAUUUCAACAGCUCGCAGUCAAG | 0.0492
17 | GGUCACGUCUCAAUCAACUCAUUCUCCAGGGAAAGCCCUGGCUAUUUCAACAGCUCGCAGUCAAG | 0.0292
18 | GGUCACGUCUCAAUCAACUCUACUUCAGGAGUUUACUCCUGUAUUUUCAACAGCUCGCAGUCAAG | -0.161
19 | GGUCACGUCUCAAUCAACUCAAACGAGGGGGGGAAAACCCCUUUACCCUCAUUAUCAACAGCUCGCAGUCAAG | -0.205
20 | GGUCACGUCUCAAUCAACUCUUUCGAGGGGGGGAAAACCCCUUUACCCUCAAUUUCAACAGCUCGCAGUCAAG | 0.103
21 | GGUCACGUCUCAAUCAACUCUUUCCCCAGGGAAAACCCUGGCAAAUUCAACAGCUCGCAGUCAAG | -0.0629
22 | GGUCACGUCUCAAUCAACUCUAAAGAGGGGGGGAAAACCCCUUUGCCCUCACUAUCAACAGCUCGCAGUCAAG | 0.331
23 | GGUCACGUCUCAAUCAACUCUACUUCCAGGGAAAUCCCUGGUUUACUCAACAGCUCGCAGUCAAG | 0.109
24 | GGUCACGUCUCAAUCAACUCCCCAGAGGGGGGGAAAACCCCUUUACCCUCCGUAUCAACAGCUCGCAGUCAAG | -0.0324
25 | GGUCACGUCUCAAUCAACUCCACAGAGGGGGGGAAAACCCCUUUACCCUCCACAUCAACAGCUCGCAGUCAAG | -0.0216

Row | Sequence | binding signal (log2 fold change)
26 | GGUCACGUCUCAAUCAACUCACUAGAGGGGGGGAAAACCCCUUUACCCUCAAUAUCAACAGCUCGCAGUCAAG | 0.176
27 | GGUCACGUCUCAAUCAACUCAAUUUCAGGAGUUUGCUCCUGUUUACUCAACAGCUCGCAGUCAAG | -0.055
28 | GGUCACGUCUCAAUCAACUCAUAAGAGGGGGGGAAAACCCCUUUGCCCUCACACUCAACAGCUCGCAGUCAAG | -0.253
29 | GGUCACGUCUCAAUCAACUCAACGCCAGGAGUUUUCUCCUGUAAUCUCAACAGCUCGCAGUCAAG | 0.04
30 | GGUCACGUCUCAAUCAACUCUUUCGAGGGGGGGAAAACCCCUUUACCCUCAUACUCAACAGCUCGCAGUCAAG | 0.524
31 | GGUCACGUCUCAAUCAACUCUUCUCCAGGAGUUUUCUCCUGUUAUCUCAACAGCUCGCAGUCAAG | 0.161
32 | GGUCACGUCUCAAUCAACUCAUGUCCAGGAGUUUGCUCCUGCUUUUUCAACAGCUCGCAGUCAAG | -0.141
33 | GGUCACGUCUCAAUCAACUCUUUCUCCAGGGAAAUCCCUGGUAAAUUCAACAGCUCGCAGUCAAG | -0.1
34 | GGUCACGUCUCAAUCAACUCUUCCUCCAGGGAAAUCCCUGGCUAAUUCAACAGCUCGCAGUCAAG | 0.11
35 | GGUCACGUCUCAAUCAACUCCUCAGAGGGGGGGAAAACCCCUUUGCCCUCCAUAUCAACAGCUCGCAGUCAAG | -0.29
36 | GGUCACGUCUCAAUCAACUCUUUUUCCAGGGAAAGCCCUGGCGUAUUCAACAGCUCGCAGUCAAG | -0.12
37 | GGUCACGUCUCAAUCAACUCUUUCUCCAGGGAAAACCCUGGUUAUUUCAACAGCUCGCAGUCAAG | -0.142
38 | GGUCACGUCUCAAUCAACUCAUCUCCAGGAGUUUUCUCCUGUAUUUUCAACAGCUCGCAGUCAAG | -0.177
39 | GGUCACGUCUCAAUCAACUCCCAAGAGGGGGGGAAAACCCCUUUGCCCUCACUAUCAACAGCUCGCAGUCAAG | -0.164
40 | GGUCACGUCUCAAUCAACUCCUUCGAGGGGGGGAAAACCCCUUUACCCUCACAUUCAACAGCUCGCAGUCAAG | -0.083
41 | GGUCACGUCUCAAUCAACUCUCAAGAGGGGGGGAAAACCCCUUUACCCUCCAUAUCAACAGCUCGCAGUCAAG | 0.253
42 | GGUCACGUCUCAAUCAACUCUUUUCCAGGAGUUUUCUCCUGUAAUUUCAACAGCUCGCAGUCAAG | 0.0451
43 | GGUCACGUCUCAAUCAACUCUAGUCCAGGAGUUUUCUCCUGCUUAUUCAACAGCUCGCAGUCAAG | 0.0928
44 | GGUCACGUCUCAAUCAACUCAUUUUCCAGGGAAAGCCCUGGUAAUCUCAACAGCUCGCAGUCAAG | -0.0129
45 | GGUCACGUCUCAAUCAACUCUAAAGAGGGGGGGAAAACCCCUUUACCCUCACCUUCAACAGCUCGCAGUCAAG | -0.214
46 | GGUCACGUCUCAAUCAACUCAGUCUCCAGGGAAAGCCCUGGUUUAUUCAACAGCUCGCAGUCAAG | 0.0183
47 | GGUCACGUCUCAAUCAACUCUAAAGAGGGGGGGAAAACCCCUUUGCCCUCGAAAUCAACAGCUCGCAGUCAAG | 0.173
48 | GGUCACGUCUCAAUCAACUCUCAAGAGGGGGGGAAAACCCCUUUACCCUCGUAUUCAACAGCUCGCAGUCAAG | -0.0233
49 | GGUCACGUCUCAAUCAACUCUACUCCCAGGGAAAACCCUGGCUAACUCAACAGCUCGCAGUCAAG | 0.0348
50 | GGUCACGUCUCAAUCAACUCAUCUUCCAGGGAAAGCCCUGGUAAUCUCAACAGCUCGCAGUCAAG | 0.229

Row | Sequence | binding signal (log2 fold change)
51 | GGUCACGUCUCAAUCAACUCAAUCUCAGGAGUUUGCUCCUGCUUAUUCAACAGCUCGCAGUCAAG | 0.0572
52 | GGUCACGUCUCAAUCAACUCCAACGAGGGGGGGAAAACCCCUUUACCCUCACAAUCAACAGCUCGCAGUCAAG | 0.01
53 | GGUCACGUCUCAAUCAACUCUUAGGAGGGGGGGAAAACCCCUUUACCCUCACAAUCAACAGCUCGCAGUCAAG | -0.194
54 | GGUCACGUCUCAAUCAACUCUAUUCCAGGAGUUUCCUCCUGUAAAUUCAACAGCUCGCAGUCAAG | 0.0329
55 | GGUCACGUCUCAAUCAACUCAUUCUCAGGAGUUUGCUCCUGUAAUUUCAACAGCUCGCAGUCAAG | 0.145
56 | GGUCACGUCUCAAUCAACUCUAUCUCCAGGGAAAACCCUGGCUAACUCAACAGCUCGCAGUCAAG | 0.369
57 | GGUCACGUCUCAAUCAACUCAUCGUCCAGGGAAAGCCCUGGUAUAUUCAACAGCUCGCAGUCAAG | 0.00836
58 | GGUCACGUCUCAAUCAACUCUUUUCCCAGGGAAAGCCCUGGUUAUUUCAACAGCUCGCAGUCAAG | -0.164
59 | GGUCACGUCUCAAUCAACUCUCUAGAGGGGGGGAAAACCCCUUUACCCUCACCGUCAACAGCUCGCAGUCAAG | -0.491
60 | GGUCACGUCUCAAUCAACUCUACUCCAGGAGUUUUCUCCUGUUUACUCAACAGCUCGCAGUCAAG | 0.0265
61 | GGUCACGUCUCAAUCAACUCAACAGAGGGGGGGAAAACCCCUUUGCCCUCCAAAUCAACAGCUCGCAGUCAAG | -0.228
62 | GGUCACGUCUCAAUCAACUCAACUCCAGGAGUUUUCUCCUGUAUACUCAACAGCUCGCAGUCAAG | -0.0496
63 | GGUCACGUCUCAAUCAACUCCCACGAGGGGGGGAAAACCCCUUUACCCUCUUUAUCAACAGCUCGCAGUCAAG | -0.0313
64 | GGUCACGUCUCAAUCAACUCUUACGAGGGGGGGAAAACCCCUUUACCCUCCACAUCAACAGCUCGCAGUCAAG | -0.213
65 | GGUCACGUCUCAAUCAACUCAUCUCCCAGGGAAACCCCUGGUAAACUCAACAGCUCGCAGUCAAG | -0.142
66 | GGUCACGUCUCAAUCAACUCUUCCUCCAGGGAAAACCCUGGCAAUUUCAACAGCUCGCAGUCAAG | -0.168
67 | GGUCACGUCUCAAUCAACUCCCAAGAGGGGGGGAAAACCCCUUUACCCUCCGUAUCAACAGCUCGCAGUCAAG | -0.0512
68 | GGUCACGUCUCAAUCAACUCUAUUCCAGGAGUUUUCUCCUGUUUUUUCAACAGCUCGCAGUCAAG | -0.172
69 | GGUCACGUCUCAAUCAACUCCAUAGAGGGGGGGAAAACCCCUUUACCCUCACCAUCAACAGCUCGCAGUCAAG | 0.0827
70 | GGUCACGUCUCAAUCAACUCAUCGUCCAGGGAAAGCCCUGGUUUAUUCAACAGCUCGCAGUCAAG | -0.236
71 | GGUCACGUCUCAAUCAACUCAUUUUCAGGAGUUUUCUCCUGCUAAUUCAACAGCUCGCAGUCAAG | -0.0203
72 | GGUCACGUCUCAAUCAACUCAAUCGAGGGGGGGAAAACCCCUUUGCCCUCAAAAUCAACAGCUCGCAGUCAAG | -0.263
73 | GGUCACGUCUCAAUCAACUCAUUUUCAGGAGUUUACUCCUGUAUUUUCAACAGCUCGCAGUCAAG | 0.0109
